The list shows a part of the results.
B1: chr3:176767854:176767855:-_ENSG00000177565_ENST00000430069|hu_hu|hu_hu_hu_mus_False|38_58 (ssRNA)
RNA: GGGAGUUCUACAGUCCGACGAUCGACAUCCUUGUUACUGGGCACGUCCUGCCCUCCUUCCCGUAUGCAGUGUCUAAGUACUAACUGCGUAGGGCCACUGGUGCUGUUCUCACUGAGGUUCCAGAUUCUUGCCGUGGAGUCUCCCAACAGAGGAUUGAGCAUCA
B2: chr15:99544167:99544168:+_ENSMUSG00000023018_ENSMUST00000023759|mus_hu|FALSE|FALSE (ssRNA)
RNA: GGGAGUUCUACAGUCCGACGAUCAGGGCUCAGCUGCCCCAAGGUUGUCCAGUGUCAACCUUUCAAGGGAGGGAAAAUGGCAGGAAGGGGAAGACGGGGAGAAAAUUCUGCUGUCCCCAGUGUAGAACAGGGAGGGAUUUGGGGCAACAGAGGAUUGAGCAUCA
B3: chr5:144935201:144935202:+_ENSMUSG00000038970_ENSMUST00000041804|mus_hu|FALSE|FALSE (ssRNA)
RNA: GGGAGUUCUACAGUCCGACGAUCCAUUAAGUCGAAUAUUUUUUGGUGACUGGGCAAAUCUUCCGAUUUGUCCACAUCAUUAAAUAUAUUGUUGAAAGGGCUCUCGGGGCCACUGGUCACGUGUAAGUCCCCUGGUAAGCUAGACAACAGAGGAUUGAGCAUCA
B4: chr16:75691255:75691256:+_ENSG00000166848_ENST00000300086|hu_hu|FALSE|FALSE (ssRNA)
RNA: GGGAGUUCUACAGUCCGACGAUCAAAGUUAUAUUUAUUUUCAACAAUGAAAACAACACAACAAAGUGGAGUCAAUCCACUAAUUUUUUAAAUCUAACACAAUGCUUAGCACAAACAAUACUCAAUAAAUAACACAUUAACCAACAACAGAGGAUUGAGCAUCA
B5: 71576936_71577056_1226_CDS_ENSG00000075292_ENST00000264447|human|control|control (ssRNA)
RNA: GGGAGUUCUACAGUCCGACGAUCACUCAUUGUCUGGCUAACUGUUUGGUUAAUGGAUUGGUUGACGGAUUUUAUGGGUUCAAGGACUGACUGUCCUCCUGAAAUGUGUAAGCCUGACAUCUUGGUUCCACUCUCAACUGAGAACAACAGAGGAUUGAGCAUCA
B6: chr3:131220538:131220539:-_ENSG00000114686_ENST00000264995|hu_hu|FALSE|FALSE (ssRNA)
RNA: GGGAGUUCUACAGUCCGACGAUCUUCUUCAGAAAGAUGCUCAUCCCACCAUGUACCACUCUUUCCAUGAAGACCUCUAACAAAAAGCCAGAUGUGUGUUCUGUUCCCCGGGCCCAGGGCAGCACCCAGGCCGUCCCCGAGUCGCAACAGAGGAUUGAGCAUCA
B7: chr12:105536279:105536280:+_ENSG00000136051_ENST00000332180|hu_mus|hu_hu_hu_mus_True|18_38 (ssRNA)
RNA: GGGAGUUCUACAGUCCGACGAUCAGCACUGAACAUGUAAUGUAAUCUGGCUGCAUCGACAGCAUUUUCAUAUACAUCAUCUAAAUAAAUCGGGAAGACAGCUCGAUGCCAGUAUAAAAAACAACAGUCACACUGUGCUUGGACCAACAGAGGAUUGAGCAUCA
B8: chrX:40531158:40531159:-_ENSG00000180182_ENST00000324817|hu_hu|motif|central (ssRNA)
RNA: GGGAGUUCUACAGUCCGACGAUCAUGCAGAUUUCCUGGAGACUGUGUGUGCAUCAUUGAGGGAGACUGAUUGACUGUGCGGUGAUAAGAUGUAGGGGGUGAAGUAAGAGGAUAAGCACCUGAUGUUCCUGGCUGCUUUGGAAACAACAGAGGAUUGAGCAUCA
B9: chr11:96688998:96688999:-_ENSMUSG00000038615_ENSMUST00000081775|mus_mus|FALSE|FALSE (ssRNA)
RNA: GGGAGUUCUACAGUCCGACGAUCCCACCCGAACCCCAAUCAGACUCAGCAGGAUGGUGAACUGGAGAAGUCCUUCCGUUAAAUAUUUCUUCAGAGAAAGCAUUGCUGAAGGACCAGAAUAUUUAUGCUUUUUUGUUUUUAAAUCAACAGAGGAUUGAGCAUCA
B10: chr1:29069144:29069145:+_ENSG00000198492_ENST00000541996|perfect_dup|motif|central (ssRNA)
RNA: GGGAGUUCUACAGUCCGACGAUCGAGAAGUCAAUCCCACUGGGAAAAAAAUUAAAACCAUGCUGACCAAGAAAUGGAGUGCGGCCGGGGGCUCCUGGUUGCCCAAACAUUGCAUCUGGUAGAAAGUGGGGCUCUCCGUUGCUCCAACAGAGGAUUGAGCAUCA
B11: 30003089_30008819_4271_CDS_ENSG00000104067_ENST00000400011|human|control|control (ssRNA)
RNA: GGGAGUUCUACAGUCCGACGAUCAGAUGGCUGGGCAUACUGCGAGGGCAAUGGAGGAGGAGGGGGAGUGGCCUGGAUGGGUUCAUAGCGUUUCUCGCCAAAUGAUCUAUCCACACCAUCAGCUUCAGGAGGCUUUCCCUUUGACAACAGAGGAUUGAGCAUCA
B12: chr4:62795864:62795865:+_ENSMUSG00000028358_ENSMUST00000107415|mus_mus|motif|central (ssRNA)
RNA: GGGAGUUCUACAGUCCGACGAUCGCCUCCCAGAAAUCACAUGUGAAAAGAAACCGAGUCCCCCAUAAGAUAAAAAAUUUGCGGAAGUAUUGUGAAAAAUGACGACAACAACAACAACAAAAUUGAGUGGAGAGUCAGCUAUGUCAACAGAGGAUUGAGCAUCA
B13: chr6:38652254:38652255:-_ENSG00000124767_ENST00000373365|hu_hu|hu_hu_hu_mus_False|18_98 (ssRNA)
RNA: GGGAGUUCUACAGUCCGACGAUCCGAGAACUUCAUAAUGGGAAAAUCAAGCUUCUGCAGGAGGGUCAGUCCAAGAACCCUCGUAUAAAAAUCCAGGGACUUCUUAGGAUCCUUAAUUCGUAGCAUGGUUUGCUGCAGUAGAAACAACAGAGGAUUGAGCAUCA
B14: chr12:16048344:16048345:+_ENSG00000023734_ENST00000419869|hu_hu|hu_hu_hu_mus_True|8_38 (ssRNA)
RNA: GGGAGUUCUACAGUCCGACGAUCAGAUCGUCCAUAAGUAAUAACCAAAAUCUCUCCUUCAGGAAUAUACUCCAUGCUGCUAACAGACAUAUUAAAAUUUAGAGAUUUCACUUCUGUCAUUGUGGCAUGAUCCCAAAGCCGAACCAACAGAGGAUUGAGCAUCA

What follows are binders tested against T1, UNK ZnF1-3 (human, UniProt Q9C0B0 31-174) (assay: nsRBNS (natural sequence RNA bind-n-seq); RBNS binding buffer (assumed for nsRBNS): 25 mM Tris pH 7.5, 150 mM KCl, 3 mM MgCl2, 0.01% Triton X-100, 500 ug/ml BSA, 20 U/ml SUPERase-In, 4 C; UNK is unkempt and MSI1 is Musashi-1; names of the RNAs are library labels; protein concentration not given here; high values mean tight binding).
T1 sequence: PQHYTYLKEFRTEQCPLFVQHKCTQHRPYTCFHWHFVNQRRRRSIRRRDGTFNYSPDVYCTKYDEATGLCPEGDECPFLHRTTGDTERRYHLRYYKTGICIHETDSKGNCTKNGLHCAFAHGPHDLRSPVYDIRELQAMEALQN

Row | Binder | binding signal [enrichment R]
1 | B1 | 0.618
2 | B2 | 2.37
3 | B3 | 0.634
4 | B4 | 2.08
5 | B5 | 0.619
6 | B6 | 0.913
7 | B7 | 2.45
8 | B8 | 2.37
9 | B9 | 1.11
10 | B10 | 1.27
11 | B11 | 1.27
12 | B12 | 2.79
13 | B13 | 0.809
14 | B14 | 1.18

Source: PMC12136788
